According to patent US20250179205A1:

How the values were obtained:
[1] = molecular target: human fibroblast activation protein (huFAP) (human), Q12884; assay: flow cytometry, NIH/3T3-huFAP clone 19 cells, PE anti-human Fc F(ab')2
[2] = molecular target: T1, His-tagged human dimeric FAP (recombinant FAP_ECD) (human), Q12884; assay: SPR (Biacore T200), His-tagged dimeric huFAP ECD captured by anti-His, antibody as analyte, 1:1 fit (avidity)
[3] = molecular target: T1, His-tagged human dimeric FAP …; assay: method not stated; SPR as in Example 5.3.2 presumed

| EC50 [1] [nM] | Kd [2] [nM] | koff [2] [s⁻¹] | kon [2] [M⁻¹ s⁻¹] | Kd [3] [nM] | Binder |
| --- | --- | --- | --- | --- | --- |
| 10.5 | 7.3 | 0.00205 | 282000 | 0.1 | P1AE0637 CD40 × FAP (28H1) (4 + 1) C-terminal crossFab fusion (bispecific antibody, human IgG1, kappa) heavy 1: EVQLVESGGGLVQPGGSLRLSCAASGYSFTGYYIHWVRQAPGKGLEWVARVIPNAGGTSYNQKFKGRFTLSVDNSKNTAYLQMNSLRAEDTAVYYCAREGIYWWGQGTLVTVSSASTKGPSVFPLAPSSKSTSGGTAALGCLVEDYFPEPVTVSWNSGALTSGVHTFPAVLQSSGLYSLSSVVTVPSSSLGTQTYICNVNHKPSNTKVDEKVEPKSCDGGGGSGGGGSEVQLVESGGGLVQPGGSLRLSCAASGYSFTGYYIHWVRQAPGKGLEWVARVIPNAGGTSYNQKFKGRFTLSVDNSKNTAYLQMNSLRAEDTAVYYCAREGIYWWGQGTLVTVSSASTKGPSVFPLAPSSKSTSGGTAALGCLVEDYFPEPVTVSWNSGALTSGVHTFPAVLQSSGLYSLSSVVTVPSSSLGTQTYICNVNHKPSNTKVDEKV[no letters for human IgG1 Fc with changes]GGGGSGGGGSGGGGSGGGGSEIVLTQSPGTLSLSPGERATLSCRASQSVSRSYLAWYQQKPGQAPRLLIIGASTRATGIPDRFSGSGSGTDFTLTISRLEPEDFAVYYCQQGQVIPPTFGQGTKVEIKSSASTKGPSVFPLAPSSKSTSGGTAALGCLVKDYFPEPVTVSWNSGALTSGVHTFPAVLQSSGLYSLSSVVTVPSSSLGTQTYICNVNHKPSNTKVDKKVEPKSC heavy 2: EVQLVESGGGLVQPGGSLRLSCAASGYSFTGYYIHWVRQAPGKGLEWVARVIPNAGGTSYNQKFKGRFTLSVDNSKNTAYLQMNSLRAEDTAVYYCAREGIYWWGQGTLVTVSSASTKGPSVFPLAPSSKSTSGGTAALGCLVEDYFPEPVTVSWNSGALTSGVHTFPAVLQSSGLYSLSSVVTVPSSSLGTQTYICNVNHKPSNTKVDEKVEPKSCDGGGGSGGGGSEVQLVESGGGLVQPGGSLRLSCAASGYSFTGYYIHWVRQAPGKGLEWVARVIPNAGGTSYNQKFKGRFTLSVDNSKNTAYLQMNSLRAEDTAVYYCAREGIYWWGQGTLVTVSSASTKGPSVFPLAPSSKSTSGGTAALGCLVEDYFPEPVTVSWNSGALTSGVHTFPAVLQSSGLYSLSSVVTVPSSSLGTQTYICNVNHKPSNTKVDEKVEPKSCDKTHTCPPCPAPEAAGGPSVFLFPPKPKDTLMISRTPEVTCVVVDVSHEDPEVKFNWYVDGVEVHNAKTKPREEQYNSTYRVVSVLTVLHQDWLNGKEYKCKVSNKALGAPIEKTISKAKGQPREPQVCTLPPSRDELTKNQVSLSCAVKGFYPSDIAVEWESNGQPENNYKTTPPVLDSDGSFFLVSKLTVDKSRWQQGNVFSCSVMHEALHNHYTQKSLSLSPG light 1: DIQMTQSPSSLSASVGDRVTITCRSSQSLVHSNGNTFLHWYQQKPGKAPKLLIYTVSNRFSGVPSRFSGSGSGTDFTLTISSLQPEDFATYFCSQTTHVPWTFGQGTKVEIKRTVAAPSVFIFPPSDRKLKSGTASVVCLLNNFYPREAKVQWKVDNALQSGNSQESVTEQDSKDSTYSLSSTLTLSKADYEKHKVYACEVTHQGLSSPVTKSFNRGEC light 2: EVQLLESGGGLVQPGGSLRLSCAASGFTFSSHAMSWVRQAPGKGLEWVSAIWASGEQYYADSVKGRFTISRDNSKNTLYLQMNSLRAEDTAVYYCAKGWLGNFDYWGQGTLVTVSSASVAAPSVFIFPPSDEQLKSGTASVVCLLNNFYPREAKVQWKVDNALQSGNSQESVTEQDSKDSTYSLSSTLTLSKADYEKHKVYACEVTHQGLSSPVTKSFNRGEC |
| 30.4 | – | – | – | – | P1AE0890 CD40 (VH2d/VL2a) × FAP (28H1) (4 + 1) C-terminal crossFab fusion (bispecific antibody, human IgG1, kappa) heavy 1: EVQLLESGGGLVQPGGSLRLSCAASGYSFTGYYIHWVRQAPGKGLEWVGRVIPNAGGTSYGDSVKGRFTISVDNSKNTAYLQMNSLRAEDTAVYYCAREGIYWWGQGTTVTVSSASTKGPSVFPLAPSSKSTSGGTAALGCLVEDYFPEPVTVSWNSGALTSGVHTFPAVLQSSGLYSLSSVVTVPSSSLGTQTYICNVNHKPSNTKVDEKVEPKSCDGGGGSGGGGSEVQLLESGGGLVQPGGSLRLSCAASGYSFTGYYIHWVRQAPGKGLEWVGRVIPNAGGTSYGDSVKGRFTISVDNSKNTAYLQMNSLRAEDTAVYYCAREGIYWWGQGTTVTVSSASTKGPSVFPLAPSSKSTSGGTAALGCLVEDYFPEPVTVSWNSGALTSGVHTFPAVLQSSGLYSLSSVVTVPSSSLGTQTYICNVNHKPSNTKVDEKV[no letters for human IgG1 Fc with changes]GGGGSGGGGSGGGGSGGGGSEIVLTQSPGTLSLSPGERATLSCRASQSVSRSYLAWYQQKPGQAPRLLIIGASTRATGIPDRFSGSGSGTDFTLTISRLEPEDFAVYYCQQGQVIPPTFGQGTKVEIKSSASTKGPSVFPLAPSSKSTSGGTAALGCLVKDYFPEPVTVSWNSGALTSGVHTFPAVLQSSGLYSLSSVVTVPSSSLGTQTYICNVNHKPSNTKVDKKVEPKSC heavy 2: EVQLLESGGGLVQPGGSLRLSCAASGYSFTGYYIHWVRQAPGKGLEWVGRVIPNAGGTSYGDSVKGRFTISVDNSKNTAYLQMNSLRAEDTAVYYCAREGIYWWGQGTTVTVSSASTKGPSVFPLAPSSKSTSGGTAALGCLVEDYFPEPVTVSWNSGALTSGVHTFPAVLQSSGLYSLSSVVTVPSSSLGTQTYICNVNHKPSNTKVDEKVEPKSCDGGGGSGGGGSEVQLLESGGGLVQPGGSLRLSCAASGYSFTGYYIHWVRQAPGKGLEWVGRVIPNAGGTSYGDSVKGRFTISVDNSKNTAYLQMNSLRAEDTAVYYCAREGIYWWGQGTTVTVSSASTKGPSVFPLAPSSKSTSGGTAALGCLVEDYFPEPVTVSWNSGALTSGVHTFPAVLQSSGLYSLSSVVTVPSSSLGTQTYICNVNHKPSNTKVDEKVEPKSCDKTHTCPPCPAPEAAGGPSVFLFPPKPKDTLMISRTPEVTCVVVDVSHEDPEVKFNWYVDGVEVHNAKTKPREEQYNSTYRVVSVLTVLHQDWLNGKEYKCKVSNKALGAPIEKTISKAKGQPREPQVCTLPPSRDELTKNQVSLSCAVKGFYPSDIAVEWESNGQPENNYKTTPPVLDSDGSFFLVSKLTVDKSRWQQGNVFSCSVMHEALHNHYTQKSLSLSPG light 1: DIQMTQSPSSLSASVGDRVTITCRSSQSLVHSNGNTFLHWYQQKPGKAPKLLIYTVSNRFSGVPSRFSGSGSGTDFTLTISSLQPEDFATYFCSQTTHVPWTFGGGTKVEIKRTVAAPSVFIFPPSDRKLKSGTASVVCLLNNFYPREAKVQWKVDNALQSGNSQESVTEQDSKDSTYSLSSTLTLSKADYEKHKVYACEVTHQGLSSPVTKSFNRGEC light 2: EVQLLESGGGLVQPGGSLRLSCAASGFTFSSHAMSWVRQAPGKGLEWVSAIWASGEQYYADSVKGRFTISRDNSKNTLYLQMNSLRAEDTAVYYCAKGWLGNFDYWGQGTLVTVSSASVAAPSVFIFPPSDEQLKSGTASVVCLLNNFYPREAKVQWKVDNALQSGNSQESVTEQDSKDSTYSLSSTLTLSKADYEKHKVYACEVTHQGLSSPVTKSFNRGEC |
| 24.3 | – | – | – | – | P1AE0889 CD40 (VH2a/VL2a) × FAP (28H1) (4 + 1) C-terminal crossFab fusion (bispecific antibody, human IgG1, kappa) heavy 1: EVQLLESGGGLVQPGGSLRLSCAASGYSFTGYYIHWVRQAPGKGLEWVGRVIPNAGGTSYNQKFKGRFTISVDNSKNTAYLQMNSLRAEDTAVYYCAREGIYWWGQGTTVTVSSASTKGPSVFPLAPSSKSTSGGTAALGCLVEDYFPEPVTVSWNSGALTSGVHTFPAVLQSSGLYSLSSVVTVPSSSLGTQTYICNVNHKPSNTKVDEKVEPKSCDGGGGSGGGGSEVQLLESGGGLVQPGGSLRLSCAASGYSFTGYYIHWVRQAPGKGLEWVGRVIPNAGGTSYNQKFKGRFTISVDNSKNTAYLQMNSLRAEDTAVYYCAREGIYWWGQGTTVTVSSASTKGPSVFPLAPSSKSTSGGTAALGCLVEDYFPEPVTVSWNSGALTSGVHTFPAVLQSSGLYSLSSVVTVPSSSLGTQTYICNVNHKPSNTKVDEKV[no letters for human IgG1 Fc with changes]GGGGSGGGGSGGGGSGGGGSEIVLTQSPGTLSLSPGERATLSCRASQSVSRSYLAWYQQKPGQAPRLLIIGASTRATGIPDRFSGSGSGTDFTLTISRLEPEDFAVYYCQQGQVIPPTFGQGTKVEIKSSASTKGPSVFPLAPSSKSTSGGTAALGCLVKDYFPEPVTVSWNSGALTSGVHTFPAVLQSSGLYSLSSVVTVPSSSLGTQTYICNVNHKPSNTKVDKKVEPKSC heavy 2: EVQLLESGGGLVQPGGSLRLSCAASGYSFTGYYIHWVRQAPGKGLEWVGRVIPNAGGTSYNQKFKGRFTISVDNSKNTAYLQMNSLRAEDTAVYYCAREGIYWWGQGTTVTVSSASTKGPSVFPLAPSSKSTSGGTAALGCLVEDYFPEPVTVSWNSGALTSGVHTFPAVLQSSGLYSLSSVVTVPSSSLGTQTYICNVNHKPSNTKVDEKVEPKSCDGGGGSGGGGSEVQLLESGGGLVQPGGSLRLSCAASGYSFTGYYIHWVRQAPGKGLEWVGRVIPNAGGTSYNQKFKGRFTISVDNSKNTAYLQMNSLRAEDTAVYYCAREGIYWWGQGTTVTVSSASTKGPSVFPLAPSSKSTSGGTAALGCLVEDYFPEPVTVSWNSGALTSGVHTFPAVLQSSGLYSLSSVVTVPSSSLGTQTYICNVNHKPSNTKVDEKVEPKSCDKTHTCPPCPAPEAAGGPSVFLFPPKPKDTLMISRTPEVTCVVVDVSHEDPEVKFNWYVDGVEVHNAKTKPREEQYNSTYRVVSVLTVLHQDWLNGKEYKCKVSNKALGAPIEKTISKAKGQPREPQVCTLPPSRDELTKNQVSLSCAVKGFYPSDIAVEWESNGQPENNYKTTPPVLDSDGSFFLVSKLTVDKSRWQQGNVFSCSVMHEALHNHYTQKSLSLSPG light 1: DIQMTQSPSSLSASVGDRVTITCRSSQSLVHSNGNTFLHWYQQKPGKAPKLLIYTVSNRFSGVPSRFSGSGSGTDFTLTISSLQPEDFATYFCSQTTHVPWTFGGGTKVEIKRTVAAPSVFIFPPSDRKLKSGTASVVCLLNNFYPREAKVQWKVDNALQSGNSQESVTEQDSKDSTYSLSSTLTLSKADYEKHKVYACEVTHQGLSSPVTKSFNRGEC light 2: EVQLLESGGGLVQPGGSLRLSCAASGFTFSSHAMSWVRQAPGKGLEWVSAIWASGEQYYADSVKGRFTISRDNSKNTLYLQMNSLRAEDTAVYYCAKGWLGNFDYWGQGTLVTVSSASVAAPSVFIFPPSDEQLKSGTASVVCLLNNFYPREAKVQWKVDNALQSGNSQESVTEQDSKDSTYSLSSTLTLSKADYEKHKVYACEVTHQGLSSPVTKSFNRGEC |
